Values joined by “and” are separate entries in the source; they are usually repeats but may differ in a detail not shown here. Equal entries are not always repeated. In all, about 2,900 compounds were measured (“IRF Lucia reporter activity, fold change vs agonist alone”: median about 0.9, highest 2% from about 2.8 on). The list shows a part of the results.
Columns and labels:
RAW-Dual [1] = test: IRF Lucia reporter activity, fold change vs agonist alone; cytotoxicity flag (confluency mask): not cytotoxic; higher = enhanced IRF activity
Summary of the method: (§1)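 RAW-Dual macrophages (50,000 cells/well in DMEM, 384-well plates) received 50 nL of library stock by pin tool, then a PRR agonist 1 h later, and were kept at 37 °C, 5% CO2. After 20 hours, supernatant was read for IRF by QuantiLuc luminescence and for NF-κB by QuantiBlue absorbance at 620 nm. Reporter activity is fold change over agonist-alone wells. Cytotoxic wells had IncuCyte confluency below 70% of agonist controls in both mask sets.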

RAW-Dual [2] = test: IRF Lucia reporter activity, fold change vs agonist alone; higher = enhanced IRF activity; conditions: library stock concentration (final ~1000-fold dilution): 10 mM; cytotoxicity flag (confluency mask): not cytotoxic; agonist: MPLA (TLR4) […]
Summary of the method: as §1

[3] = agonist: 3'3'-cGAMP (STING) 10 ug/mL

SMILES: O=C(NC1=CC(=O)[C@@H]2O[C@@H]2[C@@H]1O)c1ccccc1O (library stock concentration (final ~1000-fold dilution): 10 mM)
- IRF Lucia reporter activity (RAW-Dual [1]; [3]): 0.0693
- IRF Lucia reporter activity (RAW-Dual [1]; agonist: LPS (TLR4) 0.1 ug/mL): 0.231

SMILES: Cc1ccc(C(=O)Nc2cccc(C(F)(F)F)c2)cc1Nc1nc(-c2cccnc2)nc2c1cnn2C (library stock concentration (final ~1000-fold dilution): 10 mM)
- IRF Lucia reporter activity (RAW-Dual [1]; [3]): 1.03
- IRF Lucia reporter activity (RAW-Dual [1]; agonist: LPS (TLR4) 0.1 ug/mL): 1.27

SMILES: Cc1ccc(C(=O)Nc2cccc(C(F)(F)F)c2)cc1Nc1nc(-c2cccnc2)nc2c1cnn2C
- IRF Lucia reporter activity (RAW-Dual [2]): 1.46

SMILES: Cc1noc(-c2ccc(CSCCC(=O)O)cc2)c1NC(=O)OC(C)c1ccccc1Cl (stereo not given)
- IRF Lucia reporter activity (RAW-Dual [2]): 1.3

SMILES: Cc1noc(-c2ccc(CSCCC(=O)O)cc2)c1NC(=O)OC(C)c1ccccc1Cl (stereo not given) (library stock concentration (final ~1000-fold dilution): 10 mM)
- IRF Lucia reporter activity (RAW-Dual [1]; [3]): 0.984
- IRF Lucia reporter activity (RAW-Dual [1]; agonist: LPS (TLR4) 0.1 ug/mL): 0.82

SMILES: COc1ccc(-c2cc(=O)c3c(OC)c(OC)c(OC)c(OC)c3o2)cc1OC (library stock concentration (final ~1000-fold dilution): 10 mM)
- IRF Lucia reporter activity (RAW-Dual [1]; [3]): 0.808 and 0.811
- IRF Lucia reporter activity (RAW-Dual [1]; agonist: LPS (TLR4) 0.1 ug/mL): 0.729 and 0.735

SMILES: COc1ccc(-c2cc(=O)c3c(OC)c(OC)c(OC)c(OC)c3o2)cc1OC
- IRF Lucia reporter activity (RAW-Dual [2]): 0.77

SMILES: COc1ccc(CNCc2cccc3ccccc23)cc1.Cl
- IRF Lucia reporter activity (RAW-Dual [2]): 1.35

SMILES: COc1ccc(CNCc2cccc3ccccc23)cc1.Cl (library stock concentration (final ~1000-fold dilution): 10 mM)
- IRF Lucia reporter activity (RAW-Dual [1]; [3]): 1.12
- IRF Lucia reporter activity (RAW-Dual [1]; agonist: LPS (TLR4) 0.1 ug/mL): 1.19

SMILES: C=C1C(CO)C(O)CC1n1cnc2c(=O)nc(N)[nH]c21.O (stereo not given)
- IRF Lucia reporter activity (RAW-Dual [2]): 1.07

SMILES: C=C1C(CO)C(O)CC1n1cnc2c(=O)nc(N)[nH]c21.O (stereo not given) (library stock concentration (final ~1000-fold dilution): 10 mM)
- IRF Lucia reporter activity (RAW-Dual [1]; [3]): 0.941
- IRF Lucia reporter activity (RAW-Dual [1]; agonist: LPS (TLR4) 0.1 ug/mL): 1.24

SMILES: CNC(=O)c1cccc(-c2ccc3c(N4CCOCC4C)nc(N4CCOCC4C)nc3n2)c1 (stereo not given)
- IRF Lucia reporter activity (RAW-Dual [2]): 0.572

SMILES: CNC(=O)c1cccc(-c2ccc3c(N4CCOCC4C)nc(N4CCOCC4C)nc3n2)c1 (stereo not given) (library stock concentration (final ~1000-fold dilution): 10 mM)
- IRF Lucia reporter activity (RAW-Dual [1]; [3]): 0.435
- IRF Lucia reporter activity (RAW-Dual [1]; agonist: LPS (TLR4) 0.1 ug/mL): 0.742

SMILES: CC(C)=CCC[C@](C)(O)[C@H]1CC[C@]2(C)[C@@H]3CCC4C(C)(C)[C@@H](O)CC[C@]4(C)[C@H]3C[C@@H](O)[C@@]12C (stereo not given in full) (library stock concentration (final ~1000-fold dilution): 10 mM)
- IRF Lucia reporter activity (RAW-Dual [1]; [3]): 0.885
- IRF Lucia reporter activity (RAW-Dual [1]; agonist: LPS (TLR4) 0.1 ug/mL): 1.4

SMILES: N#Cc1c(Oc2ccc(F)c(NC(=O)Cc3cccc(C(F)(F)F)c3)c2)ccc2nc(NC(=O)C3CC3)sc12
- IRF Lucia reporter activity (RAW-Dual [2]): 1

SMILES: N#Cc1c(Oc2ccc(F)c(NC(=O)Cc3cccc(C(F)(F)F)c3)c2)ccc2nc(NC(=O)C3CC3)sc12 (library stock concentration (final ~1000-fold dilution): 10 mM)
- IRF Lucia reporter activity (RAW-Dual [1]; [3]): 0.838
- IRF Lucia reporter activity (RAW-Dual [1]; agonist: LPS (TLR4) 0.1 ug/mL): 0.681
